From PubChem BioAssay AID1030 (National Center for Advancing Translational Sciences (NCATS), 2008)
Screen size: about 220,000 compounds; about 16,000 (7.3%) were called active. Inconclusive means that the source gave no clear call. Such entries were picked first, then a sample of the others. Calls come from the whole dose curve; as a rule, active = well fitted inhibition curve with a large enough effect (not every such curve was filed as active); inconclusive = small, poorly fitted or top-dose-only effect, or another doubt; inactive = no such curve, though single readings can be large or run the other way. No potency is given beside an inconclusive call; the fits are too rough.
Potency is the fitted concentration of half-maximal effect; tags give direction and shape of the fitted curve.
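Throughout, for activity, negative = inhibition: plate controls were no enzyme wells and a reference inhibitor.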

What follows are compounds tested against Aldehyde dehydrogenase 1A1 (Homo sapiens) (UniProt P00352) (assay: qHTS Assay for Inhibitors of Aldehyde Dehydrogenase 1 (ALDH1A1)). Details: Purified ALDH1A1, NADH fluorescence, propionaldehyde substrate; series mostly up to 75.3 µM; activity, negative = inhibition: at the top concentration.
Sequence of UniProt P00352 (P00352 whole entry, looked up): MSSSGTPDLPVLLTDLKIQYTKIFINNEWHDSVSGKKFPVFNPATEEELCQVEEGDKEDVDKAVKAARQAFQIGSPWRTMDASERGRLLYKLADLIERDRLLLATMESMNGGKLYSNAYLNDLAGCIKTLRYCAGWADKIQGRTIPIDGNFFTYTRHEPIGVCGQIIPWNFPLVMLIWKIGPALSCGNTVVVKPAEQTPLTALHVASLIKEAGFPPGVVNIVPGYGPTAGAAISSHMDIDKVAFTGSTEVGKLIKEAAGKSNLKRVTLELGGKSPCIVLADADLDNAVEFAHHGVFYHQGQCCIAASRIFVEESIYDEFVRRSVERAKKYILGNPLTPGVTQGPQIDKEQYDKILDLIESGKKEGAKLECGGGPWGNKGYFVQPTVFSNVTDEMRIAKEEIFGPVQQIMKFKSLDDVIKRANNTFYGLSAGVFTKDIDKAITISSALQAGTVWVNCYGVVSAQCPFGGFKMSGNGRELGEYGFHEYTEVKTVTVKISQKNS
In the case of `CCN(CC)CCN1C(=O)c2ccccc2NC1c1ccc(N(C)C)cc1` (stereo unspecified), the Potency is reported as inconclusive [inhibitor, partial curve]. For `CCOc1cc(N2CCOCC2)c(OCC)cc1NC(=O)c1ccc(C)cc1`, the Potency was inconclusive [inhibitor, partial curve]. With `O=c1n(-c2cccc(Cl)c2)c(=O)n2n1CCC2` the Potency was inconclusive [inhibitor, single point]. With `COc1ccc(Nc2nc3ccccc3c(=O)s2)c(OC)c1` the “activity, negative = inhibition” value was inactive: -1.36%. With `COCCCn1c(SCc2cccc(C(F)(F)F)c2)nc2cc(OC)c(OC)cc2c1=N` the Potency was inconclusive [inhibitor, full curve]. `CSc1nc2cc(S(=O)(=O)N3CCOCC3)ccc2s1` was tested, and the Potency was inconclusive [inhibitor, single point]. In the case of `Cc1ncc(CO)c2c1OC(C)(C)OC2`, the “activity, negative = inhibition” value is reported as inactive: 8.64%. With `CC1(C)CC(CC(=O)Nc2ccccc2[N+](=O)[O-])C(=O)O1` (stereo unspecified) the Potency was inconclusive [inhibitor, single point]. With `Cc1ccc(C2CC(c3ccc(NS(C)(=O)=O)cc3)=NN2C(=O)c2ccco2)cc1` (stereo unspecified) the Potency was inconclusive [inhibitor, single point]. With `COc1ccc(C(=O)N/N=C/c2cccc3cccnc23)cc1` the Potency was inconclusive [inhibitor, single point]. In the case of `CC(C)(C)c1ccc(C(=O)Nc2nonc2-c2nc3ccccc3[nH]2)cc1`, the Potency is reported as inconclusive [inhibitor, single point]. `C/C(=N/NC(=O)CNC(=O)/C=C/c1ccco1)c1ccc(Cl)cc1` was tested, and the Potency was inconclusive [inhibitor, single point]. `Cc1ccc(C)c(NC(=S)NCCN(C2CCCCC2)C2CCCC2)c1` was tested, and the “activity, negative = inhibition” value was inactive: -5.13%. In the case of `Cc1nn(-c2ccccc2)c(Cl)c1CN(C(=O)CCl)c1ccc(Cl)cc1`, the Potency is reported as active: 7.08 µM. For `CCSc1sccc1C1C(C#N)=C(N)N(c2cccnc2)C2=C1C(=O)CC(C)(C)C2` (stereo unspecified), the “activity, negative = inhibition” value was inactive: -5.97%. In the case of `Cc1[nH]c2ccccc2c1C(c1ccccn1)N1CCC(C(N)=O)CC1` (stereo unspecified), the Potency is reported as inconclusive [inhibitor, single point]. For `COc1ccc(N2C(=O)CC(N3CCN(S(=O)(=O)c4cc(C)ccc4C)CC3)C2=O)cc1` (stereo unspecified), the “activity, negative = inhibition” value was inactive: -2.06%. With `CCC(=O)Nc1ccc2nc(SCC(=O)N3CCCC3)sc2c1` the Potency was inconclusive [inhibitor, single point]. In the case of `O=C(CSc1cccs1)Nc1cccc2ccccc12`, the “activity, negative = inhibition” value is reported as inactive: 27.5%. In the case of `COC(=O)c1cc(=O)nc2sc3cc(OC)ccc3n12`, the Potency is reported as active: 15.8 µM. For `CCOc1ccccc1N1C(=O)CC(Nc2ccc(N3CCOCC3)cc2)C1=O` (stereo unspecified), the Potency was active: 7.94 µM.
